In PubChem BioAssay (NCI):
The source holds several records for some structures; these can differ, active in one and inactive in another.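 In brief: 96-well plates, 48 h treatment, single concentration, percent growth endpoint.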 Some entries of the source have several records that differ or are many. Only these are listed. The calls were made as follows: active = growth percent below 10; inactive = the rest. There may be further records. This drug was run again and again over the years, at its own concentration, as given; one value stands for one run. Brackets with × stand for listed records that agree.

How the values were obtained:
HCT-116 colon = test: NCI-60 one-dose screen, 48 h (100 = growth as untreated, 0 = no growth, -100 = all killed); conditions: 25 µM
HCC-2998 colon = test: as above; conditions: 0.25 µM

SMILES: COc1cccc2c1C(=O)c1c(O)c3c(c(O)c1C2=O)C[C@@](O)(C(=O)CO)C[C@@H]3OC1CC(N)C(O)C(C)O1 (some centres undefined)
- growth (HCT-116 colon; runs of 1998): active: -31.5, -29.3, 6.13, -38.6, 4.95, 5.45, -8.93, 1.41, -19.3, -52.8, -15.8, -9.13, 1.26, 4.54, 6.22, 0.542, 1.37, 6.04, -17.1, -45.1, 0.814, -14.2, -55.7, -9.53%
- growth (HCT-116 colon; runs of 1999): active: 2.51, -20.9, 7.19, -12.2, -5.5, -30.1, -100 (2×), 0.0743, -89.6, -33.3, -59.3, 1.9, 2.12, -86.8, -91.3, -82.8, -49.6%
- growth (HCT-116 colon; runs of 2000): active: -97.5, -100, -25.5, -50.3%
- growth (HCC-2998 colon; runs of 2006): active: -23% and inactive: 47.8%
- growth (HCC-2998 colon; runs of 2007): active: -22.5, -7.88, -13.1, -27.1, -32.6, -2.46, -11.4, -3.64, 3.73% and inactive: 53.3, 45.1, 36.9, 30.4, 42.5, 50.6, 61, 27.8, 38.9 (2×), 44.3, 69.5, 66.6, 70.2, 39.1, 57, 79.5, 33.8, 51.7, 69.4, 44.7, 38.2, 69.7, 69.8, 83.8, 58.6, 48.5, 20.8, 43.4, 46.5, 57.8%
- growth (HCC-2998 colon; runs of 2008): inactive: 55.2, 54.6, 46.1, 58, 65.4, 40.1, 28.9, 39.2, 39.4, 62.9, 24.6, 45, 53.1, 42 (2×), 54, 43.8, 19.6, 26, 46.9, 37.8, 26.2, 106, 56.6, 14.3, 41.5 (2×), 17.7, 52.2, 25.4, 50, 41.8, 20.6, 51.4, 21.4, 65.7, 62.6, 59.9, 60.4, 50.3, 71.6, 66.8, 23, 14.6, 66.5, 34.4, 59.6% and active: -20.7%, -17.3%
- growth (HCC-2998 colon; runs of 2009): inactive: 27.6, 17, 58, 10, 60.7 (2×), 71.2, 77.1, 67.6, 79.1, 69.9, 73, 70.2, 30.9, 62.8, 71.7, 43.8, 40.9, 46.5, 54.9, 79.9, 57.8, 40, 46.8, 51 (2×), 62.1, 43.6, 49.2 (2×), 52.5, 42.3, 77.3, 50.9, 42.6, 46.6, 68.4, 72.5, 67.5, 58.5, 44.6, 39.6, 33.4, 49, 48.3, 54.5, 43, 47.3, 32, 54.1, 45.4, 52.9, 22.4, 36.3, 46.2, 72.2, 63.7, 32.9, 51.1, 57.5, 62.6, 49.3% and active: -2.51%
- growth (HCC-2998 colon; runs of 2010): inactive: 79.9, 59.1, 61.9, 46.4, 49.6, 59.5, 68.7, 70.7, 55.9, 41.2, 55.6, 62.1, 55.2, 57.8, 23.5, 35.5, 41.4, 42.3, 61.6 (3×), 37.3, 73.6, 71.2, 60.3, 45.1, 89.9, 49, 60.1, 77.2, 86.2, 59, 85.8, 60.2, 68.4, 58.1, 77.6, 62.6, 61.5, 67.1, 58.7, 65.5, 72.2% and active: 8.89%
- growth (HCC-2998 colon; runs of 2011): inactive: 69.3, 62.9, 61.7, 62, 74.8, 60.1, 69, 58, 72.8, 69.1, 63.6 (2×), 66.3, 68.4 (2×), 66.5, 64.4, 62.8, 67.7 (2×), 74.5, 63.1, 66, 70.8, 63.8, 59, 56.8, 45.9, 55.5, 55.6 (2×), 50.8, 49.6, 50.6 (2×), 55.7 (2×), 50.7 (2×), 45.3, 40.5, 48.8, 43.4, 37.2, 53.4, 49.7, 46.9, 54.9, 56.5, 43.5, 45.2, 46.2, 62.4, 59.1, 66.8, 59.3%
- growth (HCC-2998 colon; runs of 2012): inactive: 59.3, 44.9, 45.9, 51.7, 64.6, 64.5 (2×), 65.1, 71.6, 74.5, 46.8 (3×), 33, 52, 53.6, 59.1, 54.1, 63.9, 77.6, 52.6, 49.3, 52.8, 40.6, 41.2, 51.9, 61.1, 51.4, 56.7, 65.5, 68.7, 80.1, 75.6, 58.3, 70.9, 52.5, 54.7, 68.4, 46.9, 67.9, 80, 77.7, 50.3, 65.4, 68.8, 66.7 (2×), 70, 72.6, 77.3, 74.6 (2×), 71.3 (2×), 61, 65.9, 76.4, 75, 79.4, 93.5, 72.1, 76.1, 68.2, 72, 88.3, 78.5, 73.2, 37.5%
- growth (HCC-2998 colon; runs of 2013): inactive: 68.8, 59.6, 65.4, 67.7, 82.3, 74 (2×), 76 (2×), 48.2, 65.1, 71.6, 80.7, 73.3, 69.1, 81.4, 73.7, 80.5, 73.4, 62.4, 66.3 (2×), 57.5, 73.8, 71.8, 59.8, 68.1, 79.1, 74.1 (2×), 79.6, 58.2, 60, 84.5, 66.9 (2×), 83.9, 84.3, 89.4, 79.2, 79.8, 71.4, 77.1 (2×), 74.9, 69.3, 64.1, 79.5, 76.4, 72.8, 62 (2×), 64, 58.9, 87.9, 49.2, 51.9, 53.6, 52.9, 66.2, 61, 62.6, 63.9, 54.4, 61.6, 63.4, 55.4, 72.7, 52.5, 57.9, 62.8, 61.8%
- growth (HCC-2998 colon; runs of 2014): inactive: 76.9, 61.9, 51.2, 71.6, 65.3, 56.5, 68.2, 59.1, 58.6, 56.2, 59.5, 69.6, 57.8 (2×), 67.3, 74.1, 52.7, 57.2, 67.1, 60.2 (2×), 70.2, 56.6, 69.2, 57 (3×), 64, 64.5, 68.8, 62.9, 67.9, 58.9, 55.7, 63.4, 62.6, 69.9, 64.3, 69.4, 55.6, 58.3, 53.2, 53.7, 51.7, 44.7, 44.8, 60.1, 58.4, 59.3, 53.6, 58, 64.6, 67.2, 56.8 (2×), 46.3, 34.3, 46, 66.3, 65.6, 65.5 (2×), 49.1, 63.8 (2×), 57.9, 70, 39, 48.6, 51.9, 43.2, 59.8, 61, 45.4, 70.9, 63.7, 44.5%
- growth (HCC-2998 colon; runs of 2015): inactive: 63.2, 76.1, 73.9, 60.7 (2×), 61.9 (2×), 56.6 (3×), 62.7, 69.3, 55.5, 66.9, 62.6, 49.1 (3×), 50.4, 62, 56.7, 47.8 (3×), 51.4, 46.4, 60.4 (2×), 53.6, 66.6, 52.9 (2×), 54.9 (2×), 52.3, 57.7, 66.1, 48.7, 60.6, 65.5, 58.8, 60, 67.4, 69.5, 56.8, 54.7 (3×), 42.1, 60.1, 72.5, 64.3, 60.3, 46.6 (2×), 67.5, 69.6, 51.2, 54.4, 45.6, 59.8, 59.9, 57 (2×), 58, 63.3, 64.4, 54.1, 52.5 (2×), 54.2, 46.1, 63.5, 55.2, 72.8, 58.7, 49.5, 64.1%
- growth (HCC-2998 colon; runs of 2016): inactive: 73.2, 76.3 (2×), 58, 66.1 (2×), 50.4, 56.6 (2×), 65.7, 58.6 (2×), 67.9, 53.1, 67.2, 47.8, 63.3 (2×), 49.8, 66, 59.6, 45.6, 55.5 (2×), 72.2, 61.9 (2×), 68.8, 65.6, 54.2, 49.5, 53.6 (2×), 64.1, 73, 76, 64.6 (2×), 60.3, 77.2, 78.4, 78.8, 64.7, 74, 77.3, 71.9, 72.7, 67.6, 70.3 (3×), 69.3, 71.2, 75.6, 61.1 (2×), 69, 61, 70, 67.4, 78.2, 72.1, 63.5, 61.6, 62.4, 61.5, 67.3, 62.5, 59.1, 68.6 (2×), 55.7, 71, 81.1, 71.8, 60.1, 57, 61.7, 65.2 (2×), 58.4, 86.1, 85.7, 74.1%
- growth (HCC-2998 colon; runs of 2017): inactive: 62.1 (2×), 62.8 (3×), 66.1, 63.2, 62.6, 58.6, 59.3 (2×), 46.5, 53.6 (2×), 54.4 (2×), 58.1, 53.1 (2×), 53.4, 46.1 (2×), 49.4, 52.2, 54.9, 58.2, 59.7 (2×), 45.1, 53, 58, 66.8 (2×), 58.4 (2×), 69, 69.2, 60, 60.1 (2×), 56.1, 56.5, 59, 67.5, 53.7, 57.3, 54.2, 57.8, 52.3 (2×), 71.2, 74.2, 64.4, 53.8 (2×), 56.2, 58.5, 56, 57.9, 69.8, 68.6, 81.8, 75.9, 55.6, 56.6, 64.3, 51.3, 52.6, 43.2, 43.5, 49.8, 51.6, 47.1, 42.5, 59.1, 57.2, 56.8, 61.5, 61.7, 55.4, 46.7%
- growth (HCC-2998 colon; runs of 2018): inactive: 56.5 (2×), 63.1, 79, 77, 51.3, 50.9, 52.3, 48.7, 91, 43.3, 64, 60.7 (2×), 62.6, 73.1, 74.5, 70, 53.2, 59.1, 57.2, 54.5, 59.7, 59.3, 62, 56.1, 56.2, 60.6, 53.8, 54, 57.3 (2×), 52, 57.9 (2×), 59.8, 52.7, 65.9, 61 (3×), 58.4, 56.7, 65.3, 55.5, 62.3, 52.5, 52.8, 72.2, 68.5, 32, 55.2%
- growth (HCC-2998 colon; runs of 2019): inactive: 33.6, 29.4, 40.5, 26.4, 33.7, 45, 48.5, 48.4, 50.8 (2×), 50.4, 56.5, 59.6, 59.9, 42.3, 51.6 (2×), 53.1, 54.9, 56.8 (2×), 55.5, 54.2, 63.6, 63.3, 51.2, 63.5, 59.2, 58, 52.2, 66.6, 57.8, 59, 69.7, 72.4, 68.7, 73.6, 77.2, 58.3, 48.7, 62.5, 54, 57.3, 47.7, 52.7, 44%
- growth (HCC-2998 colon; runs of 2020): inactive: 34.6, 39.6, 42.3, 50.4, 53.2, 49.2, 59.2, 60, 53.3, 54.6 (2×), 50.3, 46.2, 54.7, 53, 52.6, 54.9, 52.1, 57.9, 44.7, 56.8, 55.1, 58.5, 60.6, 51.3%
- growth (HCC-2998 colon; runs of 2021): inactive: 54.9 (2×), 55.7, 67.4, 60.3, 49.3, 58.2 (2×), 62.9, 63.4, 51.2, 45, 73.3, 61, 60.6, 54.2 (3×), 55.2, 50.3, 51.9, 50.4, 47.1, 49.6, 68.2, 73, 48.5, 50.6, 40.9, 41.6, 42.2, 46.1, 48.4, 51.6, 62.6, 59.3, 57.8, 59.7, 56.5, 60.2, 62.1 (2×), 38.2, 41.7, 35.4, 41.8, 26.7, 18.8, 42.7, 39.5%
